Source: article PMC6464128
These are yes or no findings as the source states them, for the method shown. Sequences can lack the tags named with a protein.

T1: TEN1, yeast two-hybrid fusion (human) (UniProt Q86WV5)
T1 sequence: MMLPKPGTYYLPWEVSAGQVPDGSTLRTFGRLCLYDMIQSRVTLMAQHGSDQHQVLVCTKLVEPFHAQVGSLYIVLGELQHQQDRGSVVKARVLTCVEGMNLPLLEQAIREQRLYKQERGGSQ

B1: CDC45, yeast two-hybrid fusion (protein, UniProt O75419 1-566)
chain: MFVSDFRKEFYEVVQSQRVLLFVASDVDALCACKILQALFQCDHVQYTLVPVSGWQELETAFLEHKEQFHYFILINCGANVDLLDILQPDEDTIFFVCDTHRPVNVVNVYNDTQIKLLIKQDDDLEVPAYEDIFRDEEEDEEHSGNDSDGSEPSEKRTRLEEEIVEQTMRRRQRREWEARRRDILFDYEQYEYHGTSSAMVMFELAWMLSKDLNDMLWWAIVGLTDQWVQDKITQMKYVTDVGVLQRHVSRHNHRNEDEENTLSVDCTRISFEYDLRLVLYQHWSLHDSLCNTSYTAARFKLWSVHGQKRLQEFLADMGLPLKQVKQKFQAMDISLKENLREMIEESANKFGMKDMRVQTFSIHFGFKHKFLASDVVFATMSLMESPEKDGSGTDHFIQALDSLSRSNLDKLYHGLELAKKQLRATQQTIASCLCTNLVISQGPFLYCSLMEGTPDVMLFSRPASLSLLSKHLLKSFVCSTKNRRCKLLPLVMAAPLSMEHGTVTVVGIPPETDSSDRKNFFGRAFEKAAESTSSRMLHNHFDLSVIELKAEDRSKFLDALISLLS
B2: MCM6, yeast two-hybrid fusion (protein, UniProt Q14566 1-821)
chain: MDLAAAAEPGAGSQHLEVRDEVAEKCQKLFLDFLEEFQSSDGEIKYLQLAEELIRPERNTLVVSFVDLEQFNQQLSTTIQEEFYRVYPYLCRALKTFVKDRKEIPLAKDFYVAFQDLPTRHKIRELTSSRIGLLTRISGQVVRTHPVHPELVSGTFLCLDCQTVIRDVEQQFKYTQPNICRNPVCANRRRFLLDTNKSRFVDFQKVRIQETQAELPRGSIPRSLEVILRAEAVESAQAGDKCDFTGTLIVVPDVSKLSTPGARAETNSRVSGVDGYETEGIRGLRALGVRDLSYRLVFLACCVAPTNPRFGGKELRDEEQTAESIKNQMTVKEWEKVFEMSQDKNLYHNLCTSLFPTIHGNDEVKRGVLLMLFGGVPKTTGEGTSLRGDINVCIVGDPSTAKSQFLKHVEEFSPRAVYTSGKASSAAGLTAAVVRDEESHEFVIEAGALMLADNGVCCIDEFDKMDVRDQVAIHEAMEQQTISITKAGVKATLNARTSILAAANPISGHYDRSKSLKQNINLSAPIMSRFDLFFILVDECNEVTDYAIARRIVDLHSRIEESIDRVYSLDDIRRYLLFARQFKPKISKESEDFIVEQYKHLRQRDGSGVTKSSWRITVRQLESMIRLSEAMARMHCCDEVQPKHVKEAFRLLNKSIIRVETPDVNLDQEEEIQMEVDEGAGGINGHADSPAPVNGINGYNEDINQESAPKASLRLGFSEYCRISNLIVLHLRKVEEEEDESALKRSELVNWYLKEIESEIDSEEELINKKRIIEKVIHRLTHYDHVLIELTQAGLKGSTEGSESYEEDPYLVVNPNYLLED
B3: MCM3, yeast two-hybrid fusion (protein, UniProt P25205 1-808)
chain: MAGTVVLDDVELREAQRDYLDFLDDEEDQGIYQSKVRELISDNQYRLIVNVNDLRRKNEKRANRLLNNAFEELVAFQRALKDFVASIDATYAKQYEEFYVGLEGSFGSKHVSPRTLTSCFLSCVVCVEGIVTKCSLVRPKVVRSVHYCPATKKTIERRYSDLTTLVAFPSSSVYPTKDEENNPLETEYGLSVYKDHQTITIQEMPEKAPAGQLPRSVDVILDDDLVDKAKPGDRVQVVGTYRCLPGKKGGYTSGTFRTVLIACNVKQMSKDAQPSFSAEDIAKIKKFSKTRSKDIFDQLAKSLAPSIHGHDYVKKAILCLLLGGVERDLENGSHIRGDINILLIGDPSVAKSQLLRYVLCTAPRAIPTTGRGSSGVGLTAAVTTDQETGERRLEAGAMVLADRGVVCIDEFDKMSDMDRTAIHEVMEQGRVTIAKAGIHARLNARCSVLAAANPVYGRYDQYKTPMENIGLQDSLLSRFDLLFIMLDQMDPEQDREISDHVLRMHRYRAPGEQDGDAMPLGSAVDILATDDPNFSQEDQQDTQIYEKHDNLLHGTKKKKEKMVSAAFMKKYIHVAKIIKPVLTQESATYIAEEYSRLRSQDSMSSDTARTSPVTARTLETLIRLATAHAKARMSKTVDLQDAEEAVELVQYAYFKKVLEKEKKRKKRSEDESETEDEEEKSQEDQEQKRKRRKTRQPDAKDGDSYDPYDFSDTEEEMPQVHTPKTADSQETKESQKVELSESRLKAFKVALLDVFREAHAQSIGMNRLTESINRDSEEPFSSVEIQAALSKMQDDNQVMVSEGIIFLI
B4: MCM5, yeast two-hybrid fusion (protein, UniProt P33992 1-734)
chain: MSGFDDPGIFYSDSFGGDAQADEGQARKSQLQRRFKEFLRQYRVGTDRTGFTFKYRDELKRHYNLGEYWIEVEMEDLASFDEDLADYLYKQPAEHLQLLEEAAKEVADEVTRPRPSGEEVLQDIQVMLKSDASPSSIRSLKSDMMSHLVKIPGIIIAASAVRAKATRISIQCRSCRNTLTNIAMRPGLEGYALPRKCNTDQAGRPKCPLDPYFIMPDKCKCVDFQTLKLQELPDAVPHGEMPRHMQLYCDRYLCDKVVPGNRVTIMGIYSIKKFGLTTSRGRDRVGVGIRSSYIRVLGIQVDTDGSGRSFAGAVSPQEEEEFRRLAALPNVYEVISKSIAPSIFGGTDMKKAIACLLFGGSRKRLPDGLTRRGDINLLMLGDPGTAKSQLLKFVEKCSPIGVYTSGKGSSAAGLTASVMRDPSSRNFIMEGGAMVLADGGVVCIDEFDKMREDDRVAIHEAMEQQTISIAKAGITTTLNSRCSVLAAANSVFGRWDETKGEDNIDFMPTILSRFDMIFIVKDEHNEERDVMLAKHVITLHVSALTQTQAVEGEIDLAKLKKFIAYCRVKCGPRLSAEAAEKLKNRYIIMRSGARQHERDSDRRSSIPITVRQLEAIVRIAEALSKMKLQPFATEADVEEALRLFQVSTLDAALSGTLSGVEGFTSQEDQEMLSRIEKQLKRRFAIGSQVSEHSIIKDFTKQKYPEHAIHKVLQLMLRRGEIQHRMQRKVLYRLK

molecular target: T1, TEN1, yeast two-hybrid fusion (human); assay: two-hybrid; Matchmaker GAL4 system; mating of S. cerevisiae Y187 (pGBKT7) and AH109 (pGADT7); diploids from DDO spotted on QDO (high stringency) or TDO (less stringent) medium, 30°C, growth recorded after 3-4 d

binding | Binder
no binding | B1
no binding | B2
no binding | B3
no binding | B4
